# In publication PMC12040169 (PLOS Biology, 2025):
# The other results are listed elsewhere or left out.
# Test system: T1, C. trachomatis L2/434/Bu expressing GFP (CTL2-GFP)
# T1 construct: L2/434/Bu GFP intracellular growth in HeLa cells
# Set-up: species or system HeLa; C. trachomatis total inclusion area by high-content imaging, normalised to DMSO
# Conditions: total inclusion area; 28.5 h, 10 µM; inhibitor
# Outline: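 Following bulk GFP and resorufin fluorescence reads, infected cells were fixed, Hoechst-stained and imaged on a high-content platform. Inclusion total area and number per well served as growth proxies; nuclei counts indicated host viability. MICs were derived as for the fluorescence assay.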
row,SMILES,% of control remaining
1,COc1ccc2[nH]cc(CCNC(=O)c3cc(C)[nH]n3)c2c1 [CBK116206],95.6642
2,CC(=O)c1cc2c(N)c(C(N)=O)sc2nc1C [CBK100769],69.1793
3,CS(=O)(=O)c1ccc(-c2cccc(COC3CCN(C(=O)Cc4ccc(C#N)cc4)CC3)c2)cc1 [CBK149513],76.6323
4,Cc1nn(C)c2ncc(C(=O)N(C)Cc3ccc(C(C)(C)C)cc3)cc12 [CBK305657],45.8955
5,CCCn1c(NC(=O)C2CCCN2S(=O)(=O)CC)nc2ccccc21 (centres unmarked) [CBK295624],105.495
6,CC(=O)Nc1cccc(-n2ncc(-c3cccnc3)n2)c1 [CBK112811],107.95
7,Cc1cccc(C2(Cn3cncc3-c3cnn(C)c3)CCOCC2)c1 [CBK281765],104.076
8,CCOC(=O)N1CCC(NC(=O)c2ccc3nc4ccccc4c(=O)n3c2)CC1 [CBK294447],116.484
9,CCc1cccc2c1Sc1ccccc1CC2N1CCN(C)CC1 (centres unmarked) [CBK026248G],22.0254
10,Cc1noc(NS(=O)(=O)c2ccc(NC(=O)c3cc(-c4ccccc4Cl)nc4ccccc34)cc2)c1C [CBK296108],110.13
11,Cc1n[nH]c(C)c1Sc1ccccc1/N=C/c1ccccc1O [CBK262068],112.931
12,CC(C)(N)CC(=O)N1CCN(c2ncccn2)CC1 [CBK144532],105.702
13,O=C(CSc1ccccc1)Nc1cnc(-c2ccc(F)cc2)c(-c2ccco2)n1 [CBK037196],121.046
14,Fc1ccc(-c2ccc(N3CCN(c4ccncc4)CC3)nc2)cc1Cl [CBK036821],80.4253
15,COCC(=O)N1CCC(NC(=O)N(CCc2ccccc2)Cc2ccccc2)CC1 [CBK174877],34.1942
16,COc1ccc(OCCN2C(=O)CNC2=S)cc1 [CBK007177],72.9055
17,Nc1nc(CC(=O)N2CCCCC2)cs1 [CBK049866],75.736
18,CCn1c(=O)n(CC(=O)N2CCCCCC2)c2cccnc21 [CBK283942],52.4784
19,Cc1csc(CN(C)C(=O)c2cc3sccc3[nH]2)n1 [CBK304334],62.7356
20,Cc1cccc(N2C(=O)c3ccc(C(=O)OC(C(=O)c4ccccc4)c4ccccc4)cc3C2=O)c1 (centres unmarked) [CBK265098],105.31
21,CSc1ccccc1C(=O)NCCCn1ccnc1 [CBK269749],80.3377
22,Cc1ccc(SCc2ccc(C(=O)NCCN3CCOCC3)cc2)cc1 [CBK269314],102.885
23,CN(CC(=O)Nc1cncc(OC2CCNCC2)n1)C(=O)c1ccccc1 [CBK028440T],94.7007
24,CCCCN(C)c1nccnc1-c1cccnc1 [CBK037631],139.133
25,CCC(C(=O)N1CCc2nc(C)[nH]c(=O)c2C1)c1ccccc1 (centres unmarked) [CBK284618],61.8189
26,CC(C)CNc1cc(Cl)c(S(=O)(=O)NCC(C)C)cc1C(=O)O [CBK263405],107.925
27,CC1CCCCN1C(=O)CCc1nc2sc3c(c2c(=O)[nH]1)CCCC3 (centres unmarked) [CBK306086],73.7428

row,SMILES,% of control remaining
1,Cc1ccc(OCc2occc2C(=O)N2CCCC3(CCOC3)C2)cc1 (centres unmarked) [CBK307532],84.6391
2,O=C(NC(c1ccccc1)c1ccsc1)C1CCN(CCc2ccccc2)CC1 (centres unmarked) [CBK148433],85.6823
3,Cc1nc2ccc(NC(=S)N3c4ccccc4CC3C)cc2nc1C (centres unmarked) [CBK263169],70.3784
4,COCCN(Cc1cnn(C)c1)C(=O)Nc1cccc2nc(C)ccc12 [CBK306529],53.733
5,N#Cc1ccc(Oc2cccc(/N=C/c3ccc(/C=N/c4cccc(Oc5ccc(C#N)cc5)c4)cc3)c2)cc1 [CBK261157],85.7567
6,O=C1Nc2ccccc2S(=O)(=O)N2CCCC12 (centres unmarked) [CBK282864],88.761
7,Cc1cc(C)nc(Sc2nnc(-c3ccc(C)c(S(=O)(=O)N4CCOCC4)c3)c3ccccc23)n1 [CBK264400],109.846
8,COc1ccc([C@H]2CN(Cc3ccccc3)[C@@H]3CCN(C(=O)Cc4ccccc4)C[C@H]23)cc1 [CBK286285],43.8859
9,COc1ccc2cc(CNc3ccc(CCc4nc5ccccc5n4C)cc3)c(=O)[nH]c2c1 [CBK286159],124.45
10,Cc1nn(C)c(N2CCNCC2)c1NC(=O)C(C)c1ccccc1 (centres unmarked) [CBK045929T],60.5487
11,COc1ccc(-c2cc(C(=O)NC3CCCCC3C)c3ccccc3n2)cc1 (centres unmarked) [CBK294459],93.527
12,O=C(CN1CCC(c2ccccc2F)CC1)N1CCCC1 [CBK283578],95.2085
13,Clc1ccc(CSCCn2cccc2)cc1 [CBK021366],91.4849
14,Cc1cc2c(cc1C)C(O)CC1(CCN(C(=O)C3CCCC3)CC1)O2 (centres unmarked) [CBK282743],111.808
15,COc1cccc(Nc2[nH]nnc2C(=O)Nc2cccc(C)c2C)c1 [CBK288028],100.942
16,Cc1ccc(C(=O)NCc2ccco2)c(N2CCOCC2)n1 [CBK076410],71.1853
17,COC(=O)CCNc1nc(-c2ccc(Br)cc2)nc2ccccc12 [CBK263628],104.615
18,O=C(N[C@H]1CCN2C(=O)c3cc(-c4ccccc4)ccc3NC(=O)[C@H]12)C1CCCC1 [CBK289349],107.041
19,C[N+](C)(C)CCCCOC(c1ccccc1)c1ccccc1 [CBK261076I],95.5368
20,O=C(c1nc2ccccc2[nH]1)N1CCN(c2ccccc2)CC1 [CBK200167],109.127
21,CC(NC(=O)CCC1CCCC1)c1nc(-c2ccncc2)cs1 (centres unmarked) [CBK305819],80.3004
22,c1ccc(CN2CCN(Cc3ccccc3)C2c2ccc[nH]2)cc1 [CBK261283],96.6029
23,COCCN(Cc1cnn(C)c1)C(=O)Cc1coc2cc(C)c(Cl)cc12 [CBK307435],20.1566
24,O=C(CN1CCOCC1)N/N=C/c1cc2ccccc2nc1Cl [CBK262732],91.1974
25,COc1cccc(CC(=O)N2CCC[C@@H](N)[C@@H]2c2ccccc2F)c1 [CBK283455],105.501
26,Cc1cc(-c2nccnc2N2CCN(CCN(C)C)CC2)cc(C)c1O [CBK037184],104.101
27,CCCCSc1nc(N)cc(N2CCN3C(=O)CN(C)C(=O)C3C2)n1 (centres unmarked) [CBK306940],90.8226

row,SMILES,% of control remaining
1,CCn1c(SCC(=O)Nc2cc(C)ccc2F)nnc1-c1ccccc1O [CBK269532],79.5956
2,O=[N+]([O-])c1ccc(S(=O)(=O)N2CCC3(CC2)OCCO3)cc1 [CBK269303],63.02
3,O=C(CN(c1ccccc1)S(=O)(=O)c1ccccc1[N+](=O)[O-])Nc1ccc(I)cc1 [CBK263755],76.0579
4,Cc1cc(C)c(NC(=O)CSCc2cc(O)[nH]n2)c(Cl)c1 [CBK268302],89.628
5,CCC(CO)Nc1nccnc1-c1ccc(CO)cc1 (centres unmarked) [CBK036607],112.318
6,CC1CCN(C(=O)Cn2c(=O)n(C(C)C)c3ncccc32)CC1 [CBK283698],93.1705
7,COc1ccc(Nc2cc(-c3ccccc3OC)ncn2)cn1 [CBK037176],139.404
8,COc1ccc(-c2cc(C(F)(F)F)nc(SCC(=O)N3CCN(C)CC3)n2)cc1OC [CBK266194],111.811
9,CC(NC(=O)CCc1cnn(C)c1)c1cccc(-n2ccnc2)c1 (centres unmarked) [CBK306139],52.3191
10,O=C(O)CC1C(=O)NCCN1CCCc1ccccc1 (centres unmarked) [CBK287176],63.2971
11,Cc1ccc(-n2ncc(C(=O)N3CCc4ccccc4C3)c2NC(=O)c2ccco2)cc1C [CBK267207],106.566
12,O=C(Nc1ccc(N2CCN(Cc3ccccc3)CC2)cc1)c1ccc(-c2ccccc2)cc1 [CBK268622],82.2174
13,CCOC(=O)CNS(=O)(=O)Cc1ccccc1[N+](=O)[O-] [CBK034439],90.0105
14,Cc1cc(C)c(S(=O)(=O)Nc2ccccc2C(=O)NCc2ccco2)c(C)c1 [CBK266382],109.714
15,CCc1c(C)nc2ccccc2c1[S+]([O-])CCC(=O)OC (centres unmarked) [CBK155467T],85.0106
16,CC(O)(c1ccncc1)c1nccs1 (centres unmarked) [CBK281504],87.8533
17,COc1cc(C2NC(=S)NC(c3ccccc3)=C2C(=O)c2ccccc2)cc(I)c1OCCO (centres unmarked) [CBK267485],91.5815
18,O=C(CCn1c(C(F)F)cc2cccnc21)NCC1CCCO1 (centres unmarked) [CBK282165],91.8889
19,CC1(C)Cc2nc3nc(SCC(=O)c4ccc(Br)cc4)n(-c4ccccc4)c(=O)c3cc2CO1 [CBK263310],40.9487
20,COCC(=O)Nc1c[nH]nc1C1CCCN(c2cccc(F)c2C#N)C1 (centres unmarked) [CBK305395],88.4174
21,O=C(CC[C@@H]1CNC(=O)[C@@H]2C[C@H](NC(=O)c3ccco3)CN12)Nc1ccccc1 [CBK289007],71.3601
22,O=C(c1n[nH]c2ccccc12)N1CCc2ccccc2C1 [CBK200330],100.707
23,CCN(CC)CCOc1c(C)cc(Cl)cc1C [CBK262219],112.36
24,CCn1cnc2cc(NC(=O)C3CC4C=CC3C43CC3)ccc21 (centres unmarked) [CBK281384],91.6471
25,CC(C)c1ccc(S(=O)(=O)Nc2cccnc2)cc1 [CBK043884],59.9559
26,O=C1C=CC2=C3Oc4c(ccc5cc(O)ccc45)C(c4ccccc4C(=O)O)C3C=CC2=C1 (centres unmarked) [CBK278169N],89.1436
